# Laboratory results taken from the BET-seq Pho4 binding data (Le et al. 2018).
# The other results are listed elsewhere or left out. These are noisy estimates, calculated here from bound and input reads.
# Molecular target: T1, Pho4 (S. cerevisiae) (UniProt P07270)
# T1 sequence: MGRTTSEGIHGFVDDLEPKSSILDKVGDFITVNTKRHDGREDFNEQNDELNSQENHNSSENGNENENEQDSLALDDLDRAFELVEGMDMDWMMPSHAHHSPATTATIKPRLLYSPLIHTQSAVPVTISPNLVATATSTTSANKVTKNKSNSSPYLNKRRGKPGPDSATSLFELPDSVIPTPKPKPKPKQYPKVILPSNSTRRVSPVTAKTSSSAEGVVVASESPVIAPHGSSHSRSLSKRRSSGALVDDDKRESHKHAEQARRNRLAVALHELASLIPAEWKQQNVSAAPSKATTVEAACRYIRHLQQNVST
# Experiment: relative binding free energy (BET-seq); higher = weaker binding
# Conditions: reference: library average
row,Sequence,relative binding free energy
1,CAGGACACGTGTGTGT,0.08 kcal/mol
2,AGTTGCACGTGTAAGT,0.12 kcal/mol
3,GTAGACACGTGTGATT,0.14 kcal/mol
4,AGATGCACGTGTTGGT,0.06 kcal/mol
5,TGCATCACGTGCGTTA,0.15 kcal/mol
6,TAATACACGTGAGTGT,0.18 kcal/mol
7,ATTTGCACGTGCGTGA,-0.11 kcal/mol
8,TACGTCACGTGGGCGG,-0.08 kcal/mol
9,GTTGTCACGTGCGTAA,-0.06 kcal/mol
10,TGTAGCACGTGGTAGA,-0.08 kcal/mol
11,TGGTACACGTGCTAGG,-0.12 kcal/mol
12,GTAGTCACGTGCGTCG,0.1 kcal/mol
13,GACTTCACGTGTGTTA,0.31 kcal/mol
14,TGTCTCACGTGTAGGA,0.17 kcal/mol
15,AGTGTCACGTGATTCT,0.08 kcal/mol
16,ACAGTCACGTGTTGGA,0.14 kcal/mol
17,TGTTGCACGTGGGCAA,-0.15 kcal/mol
18,AGGGGCACGTGTTCTT,-0.14 kcal/mol
19,CTCTTCACGTGGGTGT,0.13 kcal/mol
20,CTTAGCACGTGAGGTA,0.14 kcal/mol
21,ATGTCCACGTGGCGTG,-0.03 kcal/mol
22,CTGATCACGTGTGGTA,0.13 kcal/mol
23,TTGGGCACGTGCAAGT,-0.1 kcal/mol
24,CGGCTCACGTGTCGGT,0.28 kcal/mol
25,TCGTTCACGTGTGGAT,0.26 kcal/mol
26,AGGTCCACGTGGGCAG,-0.14 kcal/mol

row,Sequence,relative binding free energy
1,TCTAGCACGTGCTGGT,-0.15 kcal/mol
2,GGATGCACGTGTTGAA,0.05 kcal/mol
3,GAAGACACGTGATGGT,0.32 kcal/mol
4,TGGATCACGTGCGGTG,0.04 kcal/mol
5,TATTTCACGTGGGTGA,0.24 kcal/mol
6,TTAAGCACGTGTTGAG,0 kcal/mol
7,TTGTTCACGTGCGATT,0.38 kcal/mol
8,TGTAGCACGTGCTAGG,-0.24 kcal/mol
9,AGGGTCACGTGCGGTT,0.09 kcal/mol
10,AAGGTCACGTGTTAAG,0.18 kcal/mol
11,ATAGTCACGTGATGAT,0.23 kcal/mol
12,GTCTTCACGTGGTATT,0.32 kcal/mol
13,GAAAACACGTGGGGGC,0.06 kcal/mol
14,GAATTCACGTGTCGTA,0.3 kcal/mol
15,AATTGCACGTGTGAAG,0.08 kcal/mol
16,TTGAGCACGTGCATAG,-0.1 kcal/mol
17,GTTTACACGTGAGTTT,0.42 kcal/mol
18,GAGGTCACGTGTGGTT,0.23 kcal/mol
19,CGTGACACGTGGGGTA,-0.18 kcal/mol
20,GGTGTCACGTGAGGCT,0.37 kcal/mol
21,AGGAGCACGTGCAAGG,-0.09 kcal/mol
22,AAGTTCACGTGGGAAA,0.27 kcal/mol
23,GAGGGCACGTGGCTTA,-0.08 kcal/mol
24,TCATCCACGTGGTTTG,0.04 kcal/mol
25,GGTTTCACGTGGCAAT,0.18 kcal/mol
26,TTAGCCACGTGAAGGG,0.2 kcal/mol

row,Sequence,relative binding free energy
1,TTAGGCACGTGTGGCG,-0.15 kcal/mol
2,TGTGGCACGTGTACTC,0.06 kcal/mol
3,AGGGTCACGTGCGGCT,-0.05 kcal/mol
4,TGTAACACGTGGCATG,-0.08 kcal/mol
5,GTGTCCACGTGGAAGT,0.26 kcal/mol
6,ATGGGCACGTGACGGC,0.01 kcal/mol
7,ATTTTCACGTGGGCCT,0.31 kcal/mol
8,TTTTGCACGTGATTAT,0.17 kcal/mol
9,CGGAGCACGTGATTTT,0.18 kcal/mol
10,TCTATCACGTGTGTTG,0.1 kcal/mol
11,GGAGACACGTGTATGG,-0.08 kcal/mol
12,GAGTGCACGTGTTTGG,0.04 kcal/mol
13,TTTGGCACGTGCGCTG,-0.25 kcal/mol
14,GTATTCACGTGGTCAG,0.23 kcal/mol
15,GTCAACACGTGTTGTG,0.05 kcal/mol
16,AAGGACACGTGTGAGT,0.09 kcal/mol
17,TGTTTCACGTGTGACA,0.26 kcal/mol
18,CTTAACACGTGATGGT,0.03 kcal/mol
19,TTATTCACGTGGCTGT,0.15 kcal/mol
20,GAGGACACGTGGTGAT,0.1 kcal/mol
21,GCGGGCACGTGTGGTA,-0.1 kcal/mol
22,ATGCTCACGTGGGGTG,0.04 kcal/mol
23,ACGGTCACGTGAGGTG,0.21 kcal/mol
24,TGAGTCACGTGAGAGC,0.41 kcal/mol
25,GATACCACGTGAGGGG,0.14 kcal/mol
26,TGATACACGTGTTAGA,-0.04 kcal/mol

row,Sequence,relative binding free energy
1,ATGGGCACGTGGGACA,-0.28 kcal/mol
2,AATATCACGTGTGGGA,0.3 kcal/mol
3,AGGGGCACGTGTATTG,-0.18 kcal/mol
4,AGGCGCACGTGTCAGT,-0.06 kcal/mol
5,GTTGGCACGTGGTTCG,-0.11 kcal/mol
6,GATAACACGTGGGCGG,-0.01 kcal/mol
7,TTCTACACGTGTTCGG,0.15 kcal/mol
8,TCGAACACGTGTTGTT,0.19 kcal/mol
9,TATGCCACGTGGGATA,-0.09 kcal/mol
10,AGATCCACGTGTAGGG,0.02 kcal/mol
11,AATGGCACGTGGGCTA,-0.28 kcal/mol
12,TGTGTCACGTGTCATT,-0.02 kcal/mol
13,GAGGGCACGTGCGTAT,-0.01 kcal/mol
14,TATGACACGTGGAATA,0.15 kcal/mol
15,GATTTCACGTGCGTGA,0.33 kcal/mol
16,TGTTCCACGTGGGAAG,0.11 kcal/mol
17,TGCCACACGTGGGGGT,-0.21 kcal/mol
18,TGGCGCACGTGATCGT,0.1 kcal/mol
19,GCGCTCACGTGGTGGG,0.11 kcal/mol
20,TTGTCCACGTGTGTGA,0.13 kcal/mol
21,ACTTACACGTGTGGTG,0.11 kcal/mol
22,TGTTACACGTGCTAAG,0.03 kcal/mol
23,TGTCCCACGTGTTGGG,-0.14 kcal/mol
24,AGTGGCACGTGAAAGG,0.07 kcal/mol
25,TGCGGCACGTGGTAAT,-0.17 kcal/mol
26,TTATACACGTGCAGGG,-0.15 kcal/mol

row,Sequence,relative binding free energy
1,GGCGTCACGTGCTTGT,0.07 kcal/mol
2,TGTTTCACGTGAGATT,0.31 kcal/mol
3,TAAGTCACGTGTGCAG,0.04 kcal/mol
4,GCGGACACGTGTTTGG,0.01 kcal/mol
5,GTACTCACGTGTCGGG,0.32 kcal/mol
6,GTATGCACGTGGAGGT,0.06 kcal/mol
7,GAGTCCACGTGGGTTG,0.02 kcal/mol
8,TAATGCACGTGAAAGT,0.22 kcal/mol
9,CTGATCACGTGGGTAA,0.1 kcal/mol
10,AGTCGCACGTGTGTGT,0.04 kcal/mol
11,ATAATCACGTGGTGTA,0.09 kcal/mol
12,TTGGGCACGTGGCTAT,-0.17 kcal/mol
13,AGGAACACGTGAATGG,0.22 kcal/mol
14,TGGATCACGTGTCGGT,0.28 kcal/mol
15,CTTGGCACGTGGTGAT,-0.17 kcal/mol
16,AGCTGCACGTGGTAGG,-0.06 kcal/mol
17,TCTTGCACGTGTTGTG,-0.01 kcal/mol
18,TGGTCCACGTGAGGTT,0.35 kcal/mol
19,TTTTTCACGTGTTACT,0.37 kcal/mol
20,GTCAGCACGTGTGGTT,0.03 kcal/mol
21,TTAGTCACGTGTGGCA,-0.07 kcal/mol
22,GTTTCCACGTGTGGTG,0.24 kcal/mol
23,TTCGTCACGTGGCGTG,0.11 kcal/mol
24,GAGTGCACGTGCATGG,-0.11 kcal/mol
25,GTGCTCACGTGGCTTA,0.3 kcal/mol
26,TATCTCACGTGTTTCG,0.22 kcal/mol

row,Sequence,relative binding free energy
1,TTGGACACGTGGAACG,0.24 kcal/mol
2,AACTGCACGTGAGTGG,0.05 kcal/mol
3,ATAGCCACGTGGTGGG,-0.24 kcal/mol
4,GAAGTCACGTGGACGG,0.16 kcal/mol
5,AGCTGCACGTGGGAAG,-0.06 kcal/mol
6,TAGCTCACGTGCTGGG,0.15 kcal/mol
7,CGGAACACGTGTGTAT,0.08 kcal/mol
8,ATTGCCACGTGGTTTG,-0.19 kcal/mol
9,TAGAGCACGTGACGTT,-0.02 kcal/mol
10,TAGTGCACGTGCCTTG,0 kcal/mol
11,GGAAACACGTGGGGAC,0.11 kcal/mol
12,TGTTGCACGTGTGCTC,0.05 kcal/mol
13,GAGTACACGTGAGGAG,0.25 kcal/mol
14,GTCAGCACGTGCGTGG,-0.08 kcal/mol
15,TTTGGCACGTGCGGTG,-0.06 kcal/mol
16,GGTGGCACGTGTTGTA,-0.03 kcal/mol
17,GTTATCACGTGTGGAA,0.21 kcal/mol
18,TTTTTCACGTGTCTAC,0.32 kcal/mol
19,TGGTGCACGTGATGAG,0.02 kcal/mol
20,CGCGGCACGTGGGCGG,-0.26 kcal/mol
21,GTTGGCACGTGAGTAA,0.11 kcal/mol
22,TAGATCACGTGGGACG,0.19 kcal/mol
23,GGTGACACGTGCAGTG,-0.02 kcal/mol
24,TGGGACACGTGGATGA,0.08 kcal/mol
25,TGTACCACGTGTTGAG,-0.08 kcal/mol
26,ATTAGCACGTGAGCTT,0.24 kcal/mol

row,Sequence,relative binding free energy
1,TCGTGCACGTGATTTT,0.18 kcal/mol
2,TTGGACACGTGTGGTT,0.12 kcal/mol
3,TGGGTCACGTGTGCCA,0.06 kcal/mol
4,TTATTCACGTGGCTAT,0.4 kcal/mol
5,GGGATCACGTGTGTCA,0.2 kcal/mol
6,GTGGGCACGTGTGAAA,0.12 kcal/mol
7,GCAAGCACGTGGTTGG,-0.09 kcal/mol
8,AGCGTCACGTGAGGGC,0.19 kcal/mol
9,TGATTCACGTGTATTG,0.17 kcal/mol
10,ACGTGCACGTGTGATG,-0.01 kcal/mol
11,GAAAACACGTGTATGG,0.13 kcal/mol
12,TTGAACACGTGGTGGT,0.02 kcal/mol
13,TTTTACACGTGTCTGA,0.12 kcal/mol
14,TTCGACACGTGGTGGG,-0.02 kcal/mol
15,GACTTCACGTGGTGAT,0.34 kcal/mol
16,GCGGTCACGTGCTGGG,0.08 kcal/mol
17,GGTGACACGTGTATCG,0.06 kcal/mol
18,GGTACCACGTGATGTG,0.12 kcal/mol
19,TAGTACACGTGGGAGC,0 kcal/mol
20,TTGTGCACGTGGCGCG,-0.24 kcal/mol
21,CATCTCACGTGTGTGT,0.24 kcal/mol
22,TAGGTCACGTGTTGGG,0.14 kcal/mol
23,TAGTTCACGTGGCAGT,0.26 kcal/mol
24,GGAAACACGTGTAGGG,0.02 kcal/mol
25,GGGGACACGTGGTGAA,0 kcal/mol
26,GAATGCACGTGCGGGA,0.08 kcal/mol

row,Sequence,relative binding free energy
1,TATCGCACGTGGGTGA,-0.24 kcal/mol
2,TGGGGCACGTGACGTC,0.08 kcal/mol
3,GGTGACACGTGGAGAG,0.06 kcal/mol
4,TAGGTCACGTGGGTCC,0.08 kcal/mol
5,TCAGTCACGTGTTCTG,0.27 kcal/mol
6,GATATCACGTGTGTTT,0.29 kcal/mol
7,GTTCACACGTGTGTAG,0.16 kcal/mol
8,GGTATCACGTGGGAGG,-0.01 kcal/mol
9,TCATTCACGTGCGGGG,0.27 kcal/mol
10,GATCGCACGTGGGTGT,-0.09 kcal/mol
11,GTGTGCACGTGCGGTC,0.01 kcal/mol
12,TGTCTCACGTGGGTAT,0.15 kcal/mol
13,GACGGCACGTGGGTTT,-0.04 kcal/mol
14,AGTGGCACGTGAATAA,0.25 kcal/mol
15,AATAACACGTGAATGG,0.29 kcal/mol
16,CTCGTCACGTGAGTGT,0.29 kcal/mol
17,TAGGGCACGTGTTTGC,-0.13 kcal/mol
18,GTTCACACGTGATTGT,0.15 kcal/mol
19,CTAAGCACGTGGGGGC,-0.26 kcal/mol
20,TGTTACACGTGGCGCG,0.04 kcal/mol
21,GAGTTCACGTGTTTGT,0.34 kcal/mol
22,CGGTTCACGTGTAGGC,0.26 kcal/mol
23,GGAAGCACGTGGGCGT,-0.29 kcal/mol
24,GATTTCACGTGCTGGT,0.28 kcal/mol
25,TAAATCACGTGGAAGG,0.22 kcal/mol
26,AGTCACACGTGTTGTT,-0.05 kcal/mol

row,Sequence,relative binding free energy
1,GGATTCACGTGAATGT,0.42 kcal/mol
2,GGAAGCACGTGGGGGG,-0.18 kcal/mol
3,CTGCGCACGTGGGCGG,-0.26 kcal/mol
4,TTTGGCACGTGGCAGT,-0.27 kcal/mol
5,TTAATCACGTGGAATG,0.17 kcal/mol
6,TGTGGCACGTGTAAGC,-0.06 kcal/mol
7,CGTTACACGTGTTGGT,0.09 kcal/mol
8,GTCAGCACGTGGTTGA,-0.08 kcal/mol
9,AGGGACACGTGGACAG,0.02 kcal/mol
10,TTCTACACGTGGGGCT,0.12 kcal/mol
11,ATTGACACGTGGATGC,0.06 kcal/mol
12,TGACGCACGTGAGTGT,-0.01 kcal/mol
13,GGAGGCACGTGCGTAA,-0.11 kcal/mol
14,GGTCGCACGTGGCGGA,-0.14 kcal/mol
15,AGTATCACGTGCTAGG,0.12 kcal/mol
16,GGTCTCACGTGCGTTG,0.25 kcal/mol
17,TTATACACGTGCGGTA,0 kcal/mol
18,TTGGACACGTGCGATG,0.06 kcal/mol
19,TAGGGCACGTGTGTCG,0 kcal/mol
20,CCTGGCACGTGTGGTT,-0.08 kcal/mol
21,TGTGGCACGTGTTTTG,-0.05 kcal/mol
22,TGAATCACGTGAGTGT,0.35 kcal/mol
